# Assay results as given in article PMC4336329 (PLoS ONE, 2015).
# The campaign covered roughly 310,000 compounds. About 14,000 (4.5%) showed an effect of 50% or more. The effect is printed as a negative number. This is one part of the list.
# Biological target: human ether-à-go-go-related gene (hERG) potassium channel (human, UniProt Q12809)
# Experiment: primary screen, population patch clamp on CHO cells stably expressing hERG
# 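Note: peak tail current of the secondary pulse compared with the same well before compound.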
# Sequence of human ether-à-go-go-related gene (hERG) potassium channel (Q12809 whole entry, looked up): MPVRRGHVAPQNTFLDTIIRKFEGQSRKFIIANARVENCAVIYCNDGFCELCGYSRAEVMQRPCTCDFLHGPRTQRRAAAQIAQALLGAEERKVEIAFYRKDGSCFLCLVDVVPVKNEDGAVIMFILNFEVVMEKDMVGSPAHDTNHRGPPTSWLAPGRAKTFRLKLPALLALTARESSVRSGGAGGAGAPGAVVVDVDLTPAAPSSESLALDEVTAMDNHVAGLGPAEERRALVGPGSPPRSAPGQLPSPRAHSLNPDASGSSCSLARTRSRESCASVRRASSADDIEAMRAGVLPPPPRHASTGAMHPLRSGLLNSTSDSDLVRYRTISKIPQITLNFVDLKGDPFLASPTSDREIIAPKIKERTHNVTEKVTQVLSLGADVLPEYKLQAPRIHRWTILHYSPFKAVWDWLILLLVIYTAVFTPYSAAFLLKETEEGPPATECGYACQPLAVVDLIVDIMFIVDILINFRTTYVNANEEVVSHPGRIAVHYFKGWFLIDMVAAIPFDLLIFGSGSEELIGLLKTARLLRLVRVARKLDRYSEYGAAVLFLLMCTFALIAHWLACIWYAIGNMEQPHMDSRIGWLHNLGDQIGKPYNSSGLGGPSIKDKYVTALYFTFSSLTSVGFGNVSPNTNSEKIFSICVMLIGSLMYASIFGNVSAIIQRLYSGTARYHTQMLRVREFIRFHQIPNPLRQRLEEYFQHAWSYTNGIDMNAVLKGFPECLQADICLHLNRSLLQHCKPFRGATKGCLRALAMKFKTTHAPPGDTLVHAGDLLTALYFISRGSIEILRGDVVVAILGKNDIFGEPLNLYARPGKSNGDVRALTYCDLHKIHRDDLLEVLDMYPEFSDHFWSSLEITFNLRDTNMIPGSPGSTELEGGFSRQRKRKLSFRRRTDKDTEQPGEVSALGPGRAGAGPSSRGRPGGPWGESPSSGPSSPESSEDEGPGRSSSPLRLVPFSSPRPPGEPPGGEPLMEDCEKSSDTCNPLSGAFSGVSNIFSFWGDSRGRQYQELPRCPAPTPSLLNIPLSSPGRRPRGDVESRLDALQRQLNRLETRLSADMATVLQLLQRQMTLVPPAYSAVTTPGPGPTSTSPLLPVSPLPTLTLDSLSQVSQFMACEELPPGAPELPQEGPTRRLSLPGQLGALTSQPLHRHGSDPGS
row,SMILES,"hERG current change (%, negative = inhibition) at 10uM [%]"
1,CCOC(=O)CSc1n[nH]c(=S)s1,7.03
2,COc1ccc(C(=O)NNC(=O)C(C)NC(=O)c2ccccc2NC(=O)c2ccco2)cc1 (stereo not drawn),22.3
3,Cc1ccc(NS(=O)(=O)c2sc3ccc(Cl)cc3c2C)cc1,10.2
4,COC(=O)C1=C(C)NC(=O)NC1c1ccc2c(c1)OCO2 (stereo not drawn),17.1
5,Cc1c(C=O)c(C=O)c(C)n1Cc1ccccc1,1.26
6,COc1c(C)cc(C(=O)C2CCCN(C(=O)C3=C(C)OCCO3)C2)cc1C (stereo not drawn),-0.363
7,CN(Cc1cccs1)C(=O)c1ccc(S(=O)(=O)NCc2ccco2)cc1,-54.2
8,Cc1nnc(NC(=O)CN2CCN(Cc3ccccc3Cl)CC2)s1,6.08
9,Cc1cccc(NC(=O)c2nc(S(=O)(=O)Cc3ccccc3)ncc2Cl)c1,-3.97
10,CCc1ccccc1OCCCCCNCCO,-9.67
11,CC(C)CC(NC(=O)C1CCC(C)CC1)C(=O)NCc1cccnc1 (stereo not drawn),-1.3
12,O=C1CCN(C(=O)Nc2cccc(Cl)c2)N1,14.1
13,Cc1cc(NC(=O)COC(=O)C(Nc2ccc(C(F)(F)F)cc2Cl)C(C)C)no1 (stereo not drawn),15.1
14,CCCOc1ccc(CNC(=O)Cc2cccs2)cc1,9.1
15,NC(N)=N/N=C/c1ccc(OCc2ccc(Cl)cc2Cl)cc1,-2.19
16,O=P(c1ccccc1)(c1ccccc1)C(O)c1ccccn1 (stereo not drawn),13.1
17,COCCCN(C(=O)c1cc(-c2ccco2)nc2ccccc12)c1c(N)n(Cc2ccccc2)c(=O)[nH]c1=O,-9.85
18,COC(=O)C1=C(c2ccc(Cl)c(C(F)(F)F)c2)C[C@@H]2CC[C@H]1N2C(=O)N1CCOCC1,-6.22
19,C=CCN(CC=C)S(=O)(=O)c1ccc(NC(=S)NC(=O)/C=C/c2ccccc2)cc1,-9.16
20,COc1ccccc1N1C(=O)C2C(C(=O)c3ccccc3)=NN(c3ccccc3)C2C1=O (stereo not drawn),9.25
21,S=c1[nH]c2ccccc2n1CCOc1ccccc1,8.28
22,CCOC(=O)c1[nH]c(C)c(C(=O)Nc2ccccc2C)c1C,3.89
23,CC(C)C(=O)Nc1cccc(NC(=O)c2cccc(F)c2)c1,5.16

row,SMILES,"hERG current change (%, negative = inhibition) at 10uM [%]"
1,COc1ccc(NC(=O)/C(=C/c2cccnc2)NC(=O)c2cccs2)cc1,16.8
2,Cc1sc(NC(=O)c2ccco2)c(C(c2ccc(F)cc2)N2CCN(C)CC2)c1C (stereo not drawn),-68.1
3,COc1cc(/C=N/OCC(=O)Nc2cc(C)cc(C)c2)ccc1OCc1ccc(Cl)cc1,-13.2
4,Cc1cc(=O)oc2cc(OC(C)C(=O)N3CCOCC3)ccc12 (stereo not drawn),7.85
5,COc1cccc(-c2nnc3n2N=C(C(C)(C)C)CS3)c1,-31.6
6,CCOC(=O)c1c(NC(=O)c2cc3n(n2)C(C(F)(F)F)CC(c2ccccc2)N3)sc(C)c1C (stereo not drawn),3.47
7,COc1ccc(OC)c(C2C(C#N)=C(N)Oc3cc(C)[nH]c(=O)c32)c1 (stereo not drawn),15.2
8,Cc1oc(-c2ccc(Cl)cc2)nc1CN1CCCN(C(=O)c2ccco2)CC1,-72.4
9,O=C(/C=C/Nc1ccc([N+](=O)[O-])cc1Br)c1cccc2ccccc12,0.163
10,Cc1cc2c(Nc3cccc(O)c3)ncnc2s1.Cl,5.03
11,N#CC1=C(N)N(c2ccc(F)cc2)C(=O)C1,1.83
12,CCCCN(CCCC)C(=O)/C=C/c1cccc([N+](=O)[O-])c1,-68
13,Cc1cc(C)cc(N2CCCn3c2nc2c3c(=O)[nH]c(=O)n2C)c1,13.6
14,O=C(Nc1ccc2oc(-c3cccnc3)nc2c1)c1ccc2c(c1)OCCO2,20.2
15,CC(C)Cc1cc(C(=O)Nc2ccc3c(c2)OCO3)no1,-4.32
16,Cc1cccn2cc(-c3cccc(NC(=O)c4cccs4)c3)nc12,-29.3
17,O=C(CN1C(=O)c2ccccc2C1=O)OCC(=O)c1ccc(F)cc1,-2.92
18,Cc1ccc(OCc2nc(C#N)c(NCc3ccc4c(c3)OCO4)o2)cc1,-1.97
19,Cc1cc(C)c(S(=O)(=O)N2CCCC(C(=O)NCc3ccccn3)C2)c(C)c1 (stereo not drawn),-10.8
20,COC(=O)c1cc2ccccc2n1S(=O)(=O)c1ccccc1,2.84
21,CCOC(CNC(=O)c1cccn2c(=O)c3c(C)c(C)sc3nc12)OCC,-12.5
22,COc1ccc(CNC(=O)C2CC(c3ccccc3[N+](=O)[O-])=NO2)cc1 (stereo not drawn),-27.7
23,CCc1ccc(OCC(=O)Nc2ccncc2)cc1,11

row,SMILES,"hERG current change (%, negative = inhibition) at 10uM [%]"
1,CCN(CC)c1ccc(/C=N/NC(=O)Nc2ccccc2)cc1,16.9
2,N#CCC(=O)N1CCN(Cc2ccc3c(c2)OCO3)CC1,16.3
3,Cc1oc2c(CN3CCCC3)c(O)ccc2c(=O)c1-c1ccccc1,-15.5
4,O=C(O)CCn1c(C(=O)O)cc2sccc21,13.1
5,CC(C)CNS(=O)(=O)c1ccc2c(c1)OCCO2,-11
6,CCOc1ccc(/C=C/C(=O)c2c(O)c3ccccc3oc2=O)cc1,-2.13
7,CCCOP(=O)(c1ccc(N(C)C)cc1)C(O)c1ccc(Cl)cc1 (stereo not drawn),9.5
8,OCCC1CN(Cc2cccc(OC3CCCC3)c2)CCN1Cc1ccsc1 (stereo not drawn),-70
9,CC(C)(Oc1ccc(-c2ccco2)cc1)C(=O)O,5.04
10,O=C(c1ccccc1F)N1CCN(C(=O)C2CC2)CC1,11
11,CCC(CC)C(=O)N1N=C(c2ccc(NS(C)(=O)=O)cc2)CC1c1ccc(C)cc1 (stereo not drawn),-7.85
12,O=C(Cc1cccs1)Nc1cccc(-c2nnc(-c3ccco3)o2)c1,-8.31
13,CCN(CC)c1ccc2cc(-c3nc4ccccc4[nH]3)c(=O)oc2c1,14.5
14,CC(Sc1ccc2c(c1)OCCO2)C(=O)Nc1ncc(Cl)cc1Cl (stereo not drawn),-8.66
15,Cc1cc(C)n2nc(C(=O)OCC(=O)NCc3ccc(Cl)cc3)nc2n1,-48.3
16,CC(Oc1ccccc1)C(=O)N1CCN(C(=O)C(C)Oc2ccccc2)CC1 (stereo not drawn),8.52
17,CCn1c(SCC(=O)Nc2nnc(C)s2)nnc1-c1ccco1,-5.98
18,CCOC(=O)c1sc2cc([N+](=O)[O-])cc(SCC(=O)OC)c2c1N,-9.57
19,O=S(=O)(c1cccc(NC(=S)N2CCN(c3cccc(Cl)c3)CC2)c1)C(F)F,-1.33
20,C/C(=N/NC(=O)c1cc(-c2cccc([N+](=O)[O-])c2)n[nH]1)c1cccc(O)c1,28.3
21,O=S(=O)(Nc1ccc(-n2cccc2)cc1)c1ccc(F)cc1,8.83
22,COc1ccc(NC(=O)/C=C/c2ccc(F)cc2)cn1,4.03
23,CC(=O)c1sc(NC(=O)CCS(=O)(=O)c2ccc(C)cc2)nc1C,3.57

row,SMILES,"hERG current change (%, negative = inhibition) at 10uM [%]"
1,CC(NC(=O)CSc1nnc2n1CCCCC2)c1ccccc1Cl (stereo not drawn),-6.43
2,CCc1cc2c(NCc3ccco3)ncnc2s1.Cl,-17.8
3,O=C(c1ccc2ncsc2c1)N1CCCCC1,17.9
4,Cc1cc(NC(C)c2ccccc2)n2ncc(-c3ccccc3)c2n1 (stereo not drawn),4.37
5,CCCCn1ccnc1C(=O)c1ccc(S(=O)(=O)N2CCCC2)cc1,-28.9
6,O=C(c1cc(-c2cccc(Cl)c2)on1)N1CCN(c2ccc(F)cc2)CC1,6.92
7,CC/C(=C\C1CCCCC1)C(NP(=O)(c1ccccc1)c1ccccc1)c1ccccc1 (stereo not drawn),12.6
8,O=C(COC(=O)c1ccccc1F)NC(=O)NC1CCCC1,1.24
9,COc1ccc(CCN2CC(C(=O)NCC3(O)CCCCC3)CCC2=O)cc1 (stereo not drawn),17.1
10,COc1ccc(C(=O)NCC(=O)N/N=C(\C)c2ccco2)cc1OC,14.8
11,CCOc1ccc(NC(=O)CCC(=O)N/N=C/c2ccc([N+](=O)[O-])s2)cc1,-20.6
12,CCn1c(CC(=O)Nc2cccc(OC)c2)nnc1SCC(=O)N1CCN(c2ccccc2)CC1,-11.5
13,COCCNC(=O)c1ccc(CS(=O)(=O)c2c(Cl)cccc2Cl)o1,0.994
14,COCCn1c(SCC(=O)NNC(=O)c2ccccc2)nc2ccccc2c1=O,-29.4
15,Cc1cc(NC(=O)CSc2nccn2C)no1,-1.04
16,O=C(CCC1CCCCC1)Nc1cc(C(F)(F)F)ccc1N1CCOCC1,-2.19
17,COc1ccc(NC(=O)CSc2nnc(-c3cccs3)n2N)c(OC)c1,0.565
18,O=C(O)c1cccc(-n2cccc2/C=N/O)c1,11.4
19,Cc1sc2ncn(CCn3cnc4sc(C)c(C)c4c3=O)c(=O)c2c1C,-19.3
20,CC1CCN(C(=O)COC(=O)c2cn(C)c3ccccc23)CC1,-10.5
21,NC(=S)Cc1nc(-c2ccccc2)cs1,16
